Over roughly 5,400 compounds, “IFI” has its median near 2; the highest 2% begin near 22. The list shows a part of the results.
Test: NOVARTIS: Inhibition Frequency Index (IFI) - the number of HTS assays where a compound showed > 50% inhibition/induction, expressed as a percentage of the number of assays in which the compound was tested.
Type: functional

Compound | IFI
COc1ccc(C2CC(=O)C3=C(C2)NC(C)=C(C(=O)OC(C)C)C3c2cccc(C)c2)cc1OC (stereo unspecified) | 6.02%
COc1cccc(N2CCN(CCNCCc3ccccc3)[C@@H](Cc3ccc(O)cc3)C2)c1 | 2.47%
CCOC(=O)c1c(NC(=O)c2ccc([N+](=O)[O-])cc2[N+](=O)[O-])sc2c1CCCC2 | 0%
CCc1ccc(C(=O)N2CCCn3cccc3C2c2ccc(C(C)(C)C)cc2)cc1 (stereo unspecified) | 7.53%
CCCC(C(=O)OCC)C(C)=NNc1ccccc1[N+](=O)[O-] (stereo unspecified) | 0%
COC(=O)c1c(S(=O)(=O)NCCc2ccccc2)sc2c1CCN(Cc1cccnc1)C2 | 1.71%
CCCCCc1ccc(C(=O)NCCCCNc2ccnc3cc(Cl)ccc23)cc1 | 3.16%
CCOC(=O)C1=C(C)NC2=C(C(=O)C(C(=O)OCC)C(c3ccccc3OC)C2)C1c1ccc(OC)c(OC)c1 (stereo unspecified) | 3.49%
CC1=C(CCN(CCCN(C)C)CCCN(C)C)C(C)(C)CCC1 | 3.94%
COc1cccc(NC(=O)c2ccc(NCCCC3CCCCCC3)c([N+](=O)[O-])c2)c1 | 0%
Clc1ccccc1C[n+]1cc(-c2ccccc2)n2c1CCC2 | 4.76%
COc1ccc(C=NNc2cc(C)nc3ccc(OC)cc23)c(OC)c1 | 7.69%
C=CCNC(=O)c1cc2c(=O)n3ccccc3nc2n(CCc2ccccc2)c1=N | 15.4%
Cn1c(SCC2CCCO2)nnc1C1CCN(C/C=C/c2ccccc2)CC1 (stereo unspecified) | 1.71%
FC(F)(F)c1cccc(CNC2CCN(CCc3ccccc3)CC2)c1 | 1.61%
CC(C)c1ccc(C=NNC(=O)c2ccccc2O)cc1 | 0%
Fc1ccccc1CCNc1ncnc2c1[nH]c1ccccc12 | 12.5%
CC(Oc1ccc(Cl)cc1Cl)c1nc(-c2ccc(NC(=O)c3cccs3)cc2)no1 (stereo unspecified) | 4.62%
COc1ccc2nc3cc(Cl)ccc3c(NCCCN(CCCN)CCCCN)c2c1 | 2.91%
CCC(C)(C)c1ccc(OCCCC[n+]2cccc(C)c2C)c(C(C)(C)CC)c1 | 8.7%
C=CCc1c(C)nc2ccccc2c1O | 3.08%

Compound | IFI
CCCCCOC(=O)C1=C(C)Nc2ncnn2C1c1cccc([N+](=O)[O-])c1 (stereo unspecified) | 0%
CCOc1ccc(C(=O)C(C)[n+]2cc(-c3ccc(Cl)cc3)n3c2CCC3)cc1 (stereo unspecified) | 5.41%
CCOc1ccccc1NC(=O)C1C(c2ccccc2)=C1c1ccccc1 | 0%
CC(=O)c1ccc(OCCSc2nc3c(N)ncnc3[nH]2)cc1 | 0%
COc1cc(C2C(C(=O)OCCc3ccccc3)=C(C)NC3=C2C(=O)CC(c2ccc(Cl)cc2)C3)ccc1OCc1ccccc1 (stereo unspecified) | 4.54%
COc1ccc(OC)c(-c2ccc(O)c(CNCCc3ccccc3)c2)c1 | 0.848%
Cc1ccccc1[S+]([O-])Cc1ccc(C(=O)N2CCN(c3ccccn3)CC2)o1 (stereo unspecified) | 0%
CCC(CC)CN1CCC(O)(c2ccc3oc(C(=O)Nc4ccc(OC)cc4)cc3c2)CC1 | 1.7%
COc1ccc2cc(CNC3CCN(Cc4ccccc4)CC3)c(=O)[nH]c2c1 | 3.77%
COc1ccc(OC(C)=O)c(C=NNC(=O)C(C)Oc2ccccc2Br)c1 (stereo unspecified) | 0%
COc1ccc(C2=C(c3ccc(OC)cc3)C3(c4ccccc4)C(=O)C2(c2ccccc2)C2C(=O)N(c4ccc(C)c(Br)c4)C(=O)C23)cc1 (stereo unspecified) | 0%
O=[N+]([O-])c1ccc(N2CCN(c3nc(NCCc4c[nH]c5ccccc45)c4ccccc4n3)CC2)cc1 | 6.17%
FC(F)(F)COc1ccc(OCC(F)(F)F)c(-c2ncnn2-c2ccccc2)c1 | 1.28%
CC(C)CNC(=O)c1cnc(NCCC2CCCN2C)nc1NC1CCCC1 (stereo unspecified) | 1.91%
Cc1ccc(S(=O)(=O)Nc2nc3n(n2)C(c2ccccc2)C=C(c2ccccc2)N3)cc1 (stereo unspecified) | 2.25%
CCc1cccc(NS(=O)(=O)c2ccc3[nH]c(=O)c(=O)[nH]c3c2)c1 | 0%
Cc1ccc(NC(=O)N(CCCN(C)C)Cc2cc3cc4c(cc3[nH]c2=O)OCO4)cc1 | 0%
O=C1NCCCCC1N(Cc1cccc(Oc2ccccc2)c1)C(=O)c1ccc(F)cc1 (stereo unspecified) | 0%
COC(=O)C1=C(C)Nc2[nH]c(=S)[nH]c(=O)c2C1c1ccccc1F (stereo unspecified) | 0%
Cc1ccc(-c2nc3ncccc3o2)cc1NC(=O)COc1ccc(C(C)(C)C)cc1 | 2.38%
Cc1ccc(Nc2nc(NCc3ccco3)c3ccccc3n2)cc1 | 7.14%

Compound | IFI
CCN(CC)CCCN(Cc1cc2cc(OC)c(OC)cc2[nH]c1=O)C(=S)Nc1cccc(Cl)c1 | 14.4%
CCOc1ccccc1-n1c(C(C)N(Cc2ccccc2)C(=O)Nc2cccc3ccccc23)nc2ccccc2c1=O (stereo unspecified) | 1.89%
CCn1c(SCc2ccc([N+](=O)[O-])cc2)nc2sc3c(c2c1=O)CCN(C)C3 | 4.17%
O=C(COc1cccc2ccccc12)NC1CCS(=O)(=O)C1 (stereo unspecified) | 0%
CCCCCCOC(=O)C1=C(C)NC(=O)NC1c1ccccc1F (stereo unspecified) | 0.714%
COC(=O)[C@@H]1C[C@H](NC(=O)c2[nH]c3ccc(Cl)cc3c2-c2ccccc2)CN1Cc1cc(OC)cc(OC)c1 | 1.77%
Cc1ccn2c(NC(C)(C)CC(C)(C)C)c(-c3ccccc3OC(=O)c3ccccc3C)nc2c1 | 3.81%
COC(=O)[C@@H]1C[C@@H](NC(=O)c2ccccc2F)CN1CC(c1ccccc1)c1ccccc1 | 2.68%
O=C1C2C3c4ccccc4C(c4ccccc43)C2C(=O)N1CCO (stereo unspecified) | 0%
CCN(CC)CCCNC(=S)N(CCN(CC)CC)Cc1cc2ccc(C)c(C)c2[nH]c1=O | 2.1%
CN(Cc1ccccc1)C(=O)CCNS(=O)(=O)c1cc(Br)cnc1N | 0%
O=[N+]([O-])c1cccc(CNc2ccc(F)c(Cl)c2)c1 | 0%
COc1cc(/C=C(\C#N)c2nc3ccccc3[nH]2)ccc1OCc1ccc(C)cc1 | 5.18%
CCCCN1C(=Cc2cccc[n+]2C)Sc2cc(NC(C)=O)ccc21 | 7.69%
CN(C)CCNc1ncnc2c1[nH]c1ccc(Br)cc12 | 13.7%
C=CC1CC23CC(C(OC(=O)CCC(=O)O)c4ccnc5ccc(OC)cc45)N2CCC13 (stereo unspecified) | 5.46%
COc1ccc(OC)c(NC(=O)c2cnn3c(C(F)(F)F)cc(-c4ccc(OC)c(OC)c4)nc23)c1 | 2.38%
Cc1ccn(C(=O)NCCNC(=O)Nc2ccc(Cc3ccc(NC(=O)NCCNC(=O)n4ccc(C)n4)cc3)cc2)n1 | 0%
CCOc1cccc2c1N(C(=O)c1cccc([N+](=O)[O-])c1)C(C)(C)C(=S)C2=C1SC(C(=O)OC)=C(C(=O)OC)S1 | 0%
